The results in this text go back to paper PMC9911399, “Two distinct binding modes provide the RNA-binding protein RbFox with extraordinary sequence specificity”.

First the molecules themselves.
T1: RBFOX1 RRM (Homo sapiens, UniProt Q9NWB1 109-208)
T1 sequence: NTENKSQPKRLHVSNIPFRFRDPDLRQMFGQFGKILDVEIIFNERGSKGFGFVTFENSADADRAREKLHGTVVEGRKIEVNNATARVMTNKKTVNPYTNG

B1: GGAUACU (DNA:RNA)
RNA: GGGAGACCGGAAUUCAGAUUGUCCGGAUACUUUAAAUCCCGUCGUAGCCACCA
DNA 1: CAATCTGAATTCCGGTCTCCC
DNA 2: TGGTGGCTACGACGGGATT
B2: GCAACCG (DNA:RNA)
RNA: B1 RNA with G26C, U28A, A29C, U31G
DNA 1: CAATCTGAATTCCGGTCTCCC
DNA 2: TGGTGGCTACGACGGGATT
B3: UAUAAGG (DNA:RNA)
RNA: B1 RNA with G25U, G26A, A27U, U28A, C30G, U31G
DNA 1: CAATCTGAATTCCGGTCTCCC
DNA 2: TGGTGGCTACGACGGGATT
B4: UCUUGCU (DNA:RNA)
RNA: B1 RNA with G25U, G26C, A27U, A29G
DNA 1: CAATCTGAATTCCGGTCTCCC
DNA 2: TGGTGGCTACGACGGGATT
B5: AAACGCG (DNA:RNA)
RNA: B1 RNA with G25A, G26A, U28C, A29G, U31G
DNA 1: CAATCTGAATTCCGGTCTCCC
DNA 2: TGGTGGCTACGACGGGATT
B6: GUGCAUC (DNA:RNA)
RNA: B1 RNA with G26U, A27G, U28C, C30U, U31C
DNA 1: CAATCTGAATTCCGGTCTCCC
DNA 2: TGGTGGCTACGACGGGATT
B7: AAGCAAA (DNA:RNA)
RNA: B1 RNA with G25A, G26A, A27G, U28C, C30A, U31A
DNA 1: CAATCTGAATTCCGGTCTCCC
DNA 2: TGGTGGCTACGACGGGATT
B8: GAGUCUU (DNA:RNA)
RNA: B1 RNA with G26A, A27G, A29C, C30U
DNA 1: CAATCTGAATTCCGGTCTCCC
DNA 2: TGGTGGCTACGACGGGATT
B9: AAGUAUU (DNA:RNA)
RNA: B1 RNA with G25A, G26A, A27G, C30U
DNA 1: CAATCTGAATTCCGGTCTCCC
DNA 2: TGGTGGCTACGACGGGATT
B10: GGGUAGU (DNA:RNA)
RNA: B1 RNA with A27G, C30G
DNA 1: CAATCTGAATTCCGGTCTCCC
DNA 2: TGGTGGCTACGACGGGATT
B11: UGACAGC (DNA:RNA)
RNA: B1 RNA with G25U, U28C, C30G, U31C
DNA 1: CAATCTGAATTCCGGTCTCCC
DNA 2: TGGTGGCTACGACGGGATT
B12: AACCCAC (DNA:RNA)
RNA: GGGAGACCGGAAUUCAGAUUGUCCAACCCACUUAAAUCCCGUCGUAGCCACCA
DNA 1: CAATCTGAATTCCGGTCTCCC
DNA 2: TGGTGGCTACGACGGGATT
B13: ACUGUCG (DNA:RNA)
RNA: B12 RNA with A26C, C27U, C28G, C29U, A30C, C31G
DNA 1: CAATCTGAATTCCGGTCTCCC
DNA 2: TGGTGGCTACGACGGGATT
B14: GCCUGUC (DNA:RNA)
RNA: B12 RNA with A25G, A26C, C28U, C29G, A30U
DNA 1: CAATCTGAATTCCGGTCTCCC
DNA 2: TGGTGGCTACGACGGGATT
B15: ACUAUUU (DNA:RNA)
RNA: B12 RNA with A26C, C27U, C28A, C29U, A30U, C31U
DNA 1: CAATCTGAATTCCGGTCTCCC
DNA 2: TGGTGGCTACGACGGGATT
B16: ACUUAGC (DNA:RNA)
RNA: B12 RNA with A26C, C27U, C28U, C29A, A30G
DNA 1: CAATCTGAATTCCGGTCTCCC
DNA 2: TGGTGGCTACGACGGGATT
B17: GGGGGUA (DNA:RNA)
RNA: B1 RNA with A27G, U28G, A29G, C30U, U31A
DNA 1: CAATCTGAATTCCGGTCTCCC
DNA 2: TGGTGGCTACGACGGGATT
B18: GAAGUAC (DNA:RNA)
RNA: B12 RNA with A25G, C27A, C28G, C29U
DNA 1: CAATCTGAATTCCGGTCTCCC
DNA 2: TGGTGGCTACGACGGGATT
B19: CAGUGCC (DNA:RNA)
RNA: B12 RNA with A25C, C27G, C28U, C29G, A30C
DNA 1: CAATCTGAATTCCGGTCTCCC
DNA 2: TGGTGGCTACGACGGGATT
B20: GACCUGG (DNA:RNA)
RNA: B12 RNA with A25G, C29U, A30G, C31G
DNA 1: CAATCTGAATTCCGGTCTCCC
DNA 2: TGGTGGCTACGACGGGATT

Substitutions are numbered along the chain they refer to; changes in the protein carry UniProt numbers. The list shows a part of the results.

This experiment deals with T1, RBFOX1 RRM. Nature of the experiment: EMSA; HiTS-Eq, 1 nM pool, 10 min; buffer printed only for the single-RNA assays: 10 mM Tris pH 7.5, 150 mM NaCl, 3.4 mM EDTA, 0.001% NP-40, 30 C. To be noted: tags: His6 N-terminal (pET28a); label: 5' 32P. The gist of the method: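 Purified wild-type or mutant RbFox RRM at increasing concentrations was equilibrated with 1 nM of 5′-radiolabelled RNA carrying 7 randomized nucleotides for 10 min in 50 µL. Unbound RNA was separated by 8% native PAGE and sequenced. Relative association constants came from read-count changes of each RNA species compared with the control reaction, normalised to the cognate motif.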
As to B1, the binding signal is 0.00938 KA relative to UGCAUGU.
Consider B2, for which the binding signal was 0.00908 KA relative to UGCAUGU.
Under B3 stands 0.00507 KA relative to UGCAUGU; under B4, 0.0191 KA relative to UGCAUGU; under B5, 0.0023 KA relative to UGCAUGU.
Under B6 stands 0.0315 KA relative to UGCAUGU; under B7, 0.00128 KA relative to UGCAUGU; under B8, 0.0155 KA relative to UGCAUGU.
Consider B9, for which the binding signal was 0.0026 KA relative to UGCAUGU.
Under B10 stands 0.0186 KA relative to UGCAUGU; under B11, 0.0137 KA relative to UGCAUGU.
Under B12 stands 0.00473 KA relative to UGCAUGU; under B13, 0.0107 KA relative to UGCAUGU; under B14, 0.0275 KA relative to UGCAUGU.
Under B15 stands 0.00183 KA relative to UGCAUGU; under B16, 0.00895 KA relative to UGCAUGU; under B17, 0.026 KA relative to UGCAUGU.
For B18, the binding signal was 0.0079 KA relative to UGCAUGU.
Under B19 stands 0.00746 KA relative to UGCAUGU; under B20, 0.0193 KA relative to UGCAUGU.
